Values quoted from earlier work in patent publication US5824072A, “Biocompatible ocular implants” (Oculex Pharmaceuticals, Inc., priority 1996, dated 1998).

System: VX2 adenocarcinoma
Details: cited from earlier work

SMILES: CC[C@]1(O)C[C@H]2CN(CCc3c([nH]c4ccccc34)[C@@](C(=O)OC)(c3cc4c(cc3OC)N(C=O)[C@H]3[C@@](O)(C(=O)OC)[C@H](OC(C)=O)[C@]5(CC)C=CCN6CC[C@]43[C@@H]65)C2)C1 [Vincristine]
- in vitro IC50: 2 to 3 ng/mL
